Test results published in article PMC12040169 (PLOS Biology, 2025).
Some of the results follow.

Each molecule was assayed on T1, C. trachomatis L2/434/Bu expressing GFP (CTL2-GFP). Details: total inclusion area; 28.5 h, 10 µM; inhibitor.
T1 construct: L2/434/Bu GFP intracellular growth in HeLa cells
Parameters: species or system HeLa; C. trachomatis total inclusion area by high-content imaging, normalised to DMSO
In short: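 High-content images of fixed, Hoechst-stained infected cultures supply inclusion area and count (growth) plus nuclei number (viability), complementing bulk GFP/resorufin fluorescence. MIC determination is unchanged from the primary assay.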

Row | Structure (SMILES) | % of control remaining
1 | c1ccc(-c2n[nH]cc2-c2cncn2CCCN2CCCCC2)cc1 [CBK281464] | 103.193
2 | O=c1n(-c2ccc(OC(F)(F)F)cc2)ccn1S(=O)(=O)c1ccc(Cl)c(Cl)c1 [CBK106656] | 88.2743
3 | CCOCCCNC(=O)c1ncoc1-c1ccc(F)cc1 [CBK282353] | 69.4558
4 | N#Cc1c(Oc2cccc(Cl)c2Cl)cccc1C(F)(F)F [CBK002592] | 84.5691
5 | O=C(O)c1ccc(-c2ccc(/C=C/c3[nH]c(=O)[nH]c(=O)c3[N+](=O)[O-])o2)cc1Cl [CBK267139] | 124.874
6 | CN1CCN(NC(=O)C23CCC(C)(C(=O)O2)C3(C)C)CC1 (centres unmarked) [CBK268285] | 100.193
7 | CC(=O)Nc1ccc(CN(C)c2c(C)nc3c(OCc4ccc(C(F)(F)F)cc4)cccn23)cc1 [CBK147380] | 84.0982
8 | O=C(CN1C(=O)C2C3C=CC(C3)C2C1=O)NCc1ccco1 (centres unmarked) [CBK265116] | 100.857
9 | Cc1nnc(SCC(=O)N2CCCN(c3ccc(F)cc3)CC2)s1 [CBK306908] | 43.557
10 | O=C(CSc1nnc(-c2ccccc2)n1-c1ccccc1)N/N=C/c1cccc2cccnc12 [CBK262863] | 97.8396
11 | CN(C)CCN(C)C(=O)c1cc(Br)cnc1N(C)S(C)(=O)=O [CBK076476] | 76.835
12 | Cc1ccc(OC(C)C(=O)Nc2ccccc2C(=O)N2CCN(C)CC2)cc1 (centres unmarked) [CBK269802] | 84.068
13 | Clc1ccc(CN2CCC(Oc3cncc(OCc4cccnc4)n3)C2)cc1Cl (centres unmarked) [CBK084448] | 93.8455
14 | Cc1ncsc1C(=O)N1CCC[C@H](C(=O)c2cccs2)C1 [CBK284260] | 65.7616
15 | Cc1ccc(OCC(=O)Nc2sc(C)c(C)c2C#N)c([N+](=O)[O-])c1 [CBK268162] | 125.949
16 | O=C(O)c1ccc(CCN2CCCC2)nc1 [CBK034220] | 96.856
17 | CC(Cn1cccn1)NS(=O)(=O)c1ccc(N2CCCC2=O)cc1 (centres unmarked) [CBK305606] | 38.5503
18 | Cc1cc2oc(C(=O)Nc3sc4c(c3C#N)CCCC4)c(C)c2cc1C [CBK266301] | 117.766
19 | CCC(NC(=O)CCOC)c1cn2cccnc2n1 (centres unmarked) [CBK306560] | 67.4374
20 | Cc1noc(C)c1CC(=O)NC(CN1CCCCC1)c1ccccc1 (centres unmarked) [CBK281507] | 88.15
21 | CCCOc1ccc(C2(CCCCN3CCCC3)C(=O)Oc3ccc(C(C)(C)C)cc32)cc1 (centres unmarked) [CBK017655C] | 5.005
22 | CC(NC(=O)C1CC=CCC1C(=O)O)C1CC2CCC1C2 (centres unmarked) [CBK027112] | 71.0008
23 | CS(=O)(=O)c1ccc(Cn2ccnc(OC3CCN(C(=O)c4cccc(C#N)c4)CC3)c2=O)cc1 [CBK161810] | 91.8923
24 | COc1ccc(C2CC(c3cccc(Br)c3)Nc3ncnn32)cc1OC (centres unmarked) [CBK294474] | 101.06
25 | CC(C)(C)OC(=O)NCc1ccc(-c2ccc(Nc3cccnc3)nc2)cc1 [CBK037804] | 111.562
26 | Cc1ncsc1CCOc1cccc(C(F)(F)F)n1 [CBK115794] | 82.8953

Row | Structure (SMILES) | % of control remaining
27 | COc1ccccc1CN1CCCC(c2nc(C)n3ccccc23)C1 (centres unmarked) [CBK283026] | 86.8977
28 | CN(C)C(=O)c1ccc(-c2cnc(N)c(-c3ccc(O)cc3)n2)cc1 [CBK116686] | 89.5092
29 | COC[C@@H]1CCCN1S(=O)(=O)c1ccc(C(C)C)cc1 [CBK200045] | 133.564
30 | CC(=O)N/C(=C/c1ccccc1)C(=O)NCCC(=O)O [CBK264046] | 84.1733
31 | Oc1c(Br)cc2oc3c(c2c1CNc1ccccc1)CCCC3 [CBK160397] | 86.3152
32 | O=S(=O)(NCc1cccnc1)c1ccc(Cl)c(Cl)c1Cl [CBK264032] | 108.636
33 | Cc1ccc(N2CCCC2=O)cc1S(=O)(=O)NC(c1ccccc1)c1ccccc1 [CBK286348] | 81.7958
34 | Cc1ccc(C(=O)NC2CCCCCC2)cc1C [CBK083665] | 116.306
35 | CCN1CCN(Cc2nc3c(c(=O)n(C)c(=O)n3C)n2Cc2c(F)cccc2Cl)CC1 [CBK269236] | 98.0178
36 | O=C(CCn1c(-c2ccncc2)cc2cccnc21)NC1CCCCC1 [CBK282621] | 111.093
37 | O=C(C1CCOCC1)N1CCCC[C@H]2CN(Cc3ccccc3)C[C@H]21 [CBK284839] | 102.849
38 | Cc1ccc(C(C)(C)CC(C)NCc2ccc(Cl)cc2)o1 (centres unmarked) [CBK262873] | 96.9112
39 | COCCC(=O)N[C@H]1CC[C@]2(C)CCC([C@H](C)C(=O)N3CCC(C)CC3)[C@H](O)[C@H]2[C@@H]1C (some centres unmarked) [CBK289451] | 123.288
40 | CS(=O)(=O)Nc1cc(-c2noc([C@@H]3CCCN3Cc3ccc(S(C)(=O)=O)cc3)n2)ccn1 [CBK288890] | 113.19
41 | CC(C)NC(=O)Cn1ccc2ccnc(-c3cccs3)c21 [CBK284732] | 89.5655
42 | Cc1ncc(CN(C)C(C)C(=O)Nc2ccccc2N2CCCC2=O)s1 (centres unmarked) [CBK298274] | 91.6564
43 | O=C(CSc1nnc(Cc2cccs2)n1-c1ccccc1)Nc1ccc(F)c(Cl)c1 [CBK267589] | 93.2643
44 | CCc1nnc(NS(=O)(=O)c2ccc(NC(=S)Nc3ccc(F)cc3)cc2)s1 [CBK050037] | 23.0064
45 | COc1cc2cc3c(N)c(C(=O)N4CCCc5ccccc54)sc3nc2cc1OC [CBK117298] | 103.581
46 | CCOC(=O)c1c(-c2ccccc2)oc2ccc(OCC(=O)NN)cc12 [CBK263826] | 120.858
47 | CC(C)(CC(=O)O)CC(=O)Nc1ccc2c(c1)ncn2CCc1ccccc1 [CBK299768] | 114.019
48 | c1ccc2c(c1)ccn2Cc1ccc(-c2nccnc2-c2nnn[nH]2)cc1 [CBK050821] | 105.45
49 | COc1ccc(Cl)cc1S(=O)(=O)N1CCC(C(=O)NCc2cccnc2)CC1 [CBK269878] | 86.5106
50 | CC(C)(C)OC(=O)NC(C)(C)C(=O)N1C[C@H](C(=O)N2CCC3(CC2)CN(S(C)(=O)=O)c2ccccc23)[C@@H](c2nc3ccccc3s2)C1 [CBK136737] | 96.5406
51 | Cc1cnn(CC(=O)NC(Cc2ccsc2)c2nc(C)cs2)c1 (centres unmarked) [CBK285151] | 90.7729
52 | CCNC(=O)C1(Cc2ccc(-c3ccncc3)cc2)CCN(C(=O)CC2CCCCC2)CC1 [CBK285785] | 105.692

Row | Structure (SMILES) | % of control remaining
53 | Cn1nc(-c2ccc(F)cc2)cc1[C@H]1CN2CC[C@H]1C[C@@H]2CNC(=O)N1CCOCC1 [CBK289108] | 95.9115
54 | Nc1ncc(-c2ccc(CN3CCOCC3)cc2)nc1-c1ccc(O)cc1 [CBK123798] | 72.7179
55 | Cc1ccc(-n2ncc3c(=O)n(CC(=O)N4CCCCC4)cnc32)cc1 [CBK287532] | 126.239
56 | COc1ccc2c(c1)CC(=O)NC21CCN(CCCCC(C)C)CC1 [CBK039839] | 96.9186
57 | Cc1c(C(=O)CCN(C)C2CC=C(c3ccc(F)cc3)CC2)cnn1CCO (centres unmarked) [CBK023799] | 101.657
58 | CCc1nc2c(C(=O)NCCNC(C)=O)cnn2c(CC)c1Cc1ccc(Cl)cc1 [CBK165730] | 84.5145
59 | CCn1c2ccccc2c2cc(CN3CCN(S(=O)(=O)c4ccc(NC(C)=O)cc4)CC3)ccc21 [CBK264248] | 106.162
60 | Cc1ccc(-c2csc(NC(=O)c3ccc(S(=O)(=O)N4CCOCC4)cc3)n2)cc1 [CBK094024] | 111.398
61 | CCNc1nc(-c2ccc(SCC)cc2)cn2ccnc12 [CBK066489] | 93.0768
62 | O=C(COc1cccnc1)N1CCN(c2ccccc2)CC1 [CBK200210] | 80.0542
63 | COc1ccc2[nH]cc(CCNC(=O)N3CCCC(C(=O)O)C3)c2c1 (centres unmarked) [CBK161351] | 77.4216
64 | C#CCOc1ccc(/C=N/N=C(\N)c2nonc2N)cc1OC [CBK264765] | 84.4275
65 | Cc1ccnc2c1C(=O)C1(CC2)CCN(C(=O)Nc2ccc(F)cc2F)CC1 [CBK059553T] | 99.8943
66 | Oc1ccc(-c2cncc(Nc3cccc(Br)c3)n2)cc1 [CBK107803] | 91.9813
67 | Cc1cc(NC(=O)CCC2CCCCC2)nc2c1c(=O)oc1ccccc12 [CBK291125] | 81.4058
68 | CC(C)[C@H]1CN(Cc2cc(C#N)n(C)c2)C[C@@H]1NC(=O)C1CCC1 [CBK306832] | 46.2834
69 | Cc1ccc(C2=NN(C(=O)CNc3cc(F)cc(F)c3)C(c3ccco3)C2)cc1 (centres unmarked) [CBK297922] | 93.1239
70 | CN(C)CCN1CCN(c2cncc(-c3cccnc3)n2)CC1 [CBK065416] | 93.1593
71 | CNS(=O)(=O)c1cccc2c1CCN(C(=O)NC1CCOC1)C2 (centres unmarked) [CBK306172] | 129.257
72 | O=C(O)C1CCN(c2ncnc3scc(-c4ccccc4)c23)CC1 [CBK076784] | 103.791
73 | O=c1scnn1Cc1nc(-c2ccsc2)no1 [CBK306438] | 51.2906
74 | Clc1cccc(Cl)c1CN(Cc1ccccc1)c1ncnc2[nH]cnc12 [CBK266571] | 109.205
75 | COc1ccc(C(NC(=O)C2CCN(C(=O)OC(C)C)CC2)c2ccccc2C)cn1 (centres unmarked) [CBK059704] | 94.9363
76 | Brc1ccc2[nH]c3c(c2c1)CCNC31CCN(CCOc2ccccc2)C1 (centres unmarked) [CBK083578] | 46.7706
77 | CC(C)(C)C(=O)N1CCC(n2nc(-c3cccs3)oc2=O)CC1 [CBK282423] | 101.744
